Out of some 310,000 compounds screened, about 2,200 (0.71%) showed an effect of 50% or more. Effects have a minus sign here. The list shows a part of the results.

For this assay, the target named is human ether-à-go-go-related gene (hERG) potassium channel (human, UniProt Q12809). Nature of the assay: primary screen, population patch clamp on CHO cells stably expressing hERG.
human ether-à-go-go-related gene (hERG) potassium channel, sequence (Q12809 whole entry, looked up): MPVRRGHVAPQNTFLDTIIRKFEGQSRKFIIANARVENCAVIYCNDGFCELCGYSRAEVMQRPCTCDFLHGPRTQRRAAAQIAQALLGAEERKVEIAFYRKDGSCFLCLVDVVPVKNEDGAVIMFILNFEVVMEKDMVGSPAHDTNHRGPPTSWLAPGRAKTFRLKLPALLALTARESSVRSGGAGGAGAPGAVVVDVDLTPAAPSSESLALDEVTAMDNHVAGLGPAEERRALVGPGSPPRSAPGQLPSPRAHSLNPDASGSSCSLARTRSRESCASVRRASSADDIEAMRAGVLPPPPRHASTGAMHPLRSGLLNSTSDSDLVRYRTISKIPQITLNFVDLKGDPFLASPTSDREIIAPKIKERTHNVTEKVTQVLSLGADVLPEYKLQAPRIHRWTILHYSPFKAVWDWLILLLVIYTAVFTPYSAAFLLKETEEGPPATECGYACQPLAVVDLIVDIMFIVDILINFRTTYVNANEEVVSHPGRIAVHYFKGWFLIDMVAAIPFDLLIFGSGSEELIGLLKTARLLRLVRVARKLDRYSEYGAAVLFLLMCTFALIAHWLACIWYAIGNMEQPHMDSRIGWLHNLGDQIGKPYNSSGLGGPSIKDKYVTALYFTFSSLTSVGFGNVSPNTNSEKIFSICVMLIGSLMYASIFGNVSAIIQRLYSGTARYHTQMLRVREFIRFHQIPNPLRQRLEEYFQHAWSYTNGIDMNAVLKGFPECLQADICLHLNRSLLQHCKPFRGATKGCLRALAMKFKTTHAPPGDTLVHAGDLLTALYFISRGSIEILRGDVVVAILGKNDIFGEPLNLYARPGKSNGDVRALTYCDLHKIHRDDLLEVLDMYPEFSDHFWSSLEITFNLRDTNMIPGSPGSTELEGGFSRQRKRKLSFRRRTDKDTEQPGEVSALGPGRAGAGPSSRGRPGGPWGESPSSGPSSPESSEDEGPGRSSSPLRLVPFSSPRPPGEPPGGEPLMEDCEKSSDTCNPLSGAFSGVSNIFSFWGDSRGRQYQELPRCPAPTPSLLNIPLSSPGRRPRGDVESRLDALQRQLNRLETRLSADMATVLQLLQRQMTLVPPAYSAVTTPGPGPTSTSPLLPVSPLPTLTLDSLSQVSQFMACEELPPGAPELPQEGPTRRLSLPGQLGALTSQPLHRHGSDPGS
For `CCOCCOC(=O)COc1ccc2c(=O)c(Oc3ccc(OC)cc3)coc2c1`, the “hERG current change (%, negative = inhibition) at 1uM” value worked out at 16.3%.
As for `COc1cccc(CN2CCN(Cc3nc(C(C)C)cs3)CC2CCO)c1` (stereo not shown), the “hERG current change (%, negative = inhibition) at 1uM” value is -20%.
The figure for `O=C(/C=C/c1ccc2c(c1)OCO2)NCc1ccco1` is 11.3%.
The figure for `CCc1ccc(-c2cc(C(=O)NN3CCN(C)CC3)c3ccccc3n2)cc1` is -10.2%; for `COc1ccc(C(=O)NCC(=O)OCc2ccc(Cl)cc2Cl)cc1OC` it is 12.3%; for `Cc1nonc1NC(=O)OCCN1CCOC1=O` it is 11.7%.
Turning to `CN(c1cccc(Cl)c1)S(=O)(=O)c1cccc(C(=O)NC2=NCCS2)c1`, the “hERG current change (%, negative = inhibition) at 1uM” value is listed as 8.55%.
As for `COc1ccc2c(CC(=O)OCC(=O)c3ccc(F)cc3)coc2c1`, the figure is 11.4%.
The figure for `Cc1ccc(S(=O)(=O)N2CCOCC2)cc1NC(=O)CSc1nnc(NC2CC2)s1` is 5.08%; for `CS(=O)(=O)N1CCN(c2ccc([N+](=O)[O-])cc2C(F)(F)F)CC1` it is -21.9%; for `CCc1occc(=O)c1Oc1cc(NN2CCCCC2)c([N+](=O)[O-])cc1[N+](=O)[O-]` it is 4.71%.
As for `COc1cccc(/C=C2/SC(=S)N(CC(=O)NNC(=O)c3ccccc3O)C2=O)c1`, the figure is 18.8%; as for `Cc1ccc(NCN2C(=O)C3C4C=CC(C4)C3C2=O)cc1` (stereo not shown), 6.97%; as for `O=S1(=O)CCC(S(=O)(=O)N2CCCCCC2)C1` (stereo not shown), 9.75%.
Consider `O=C(OCC(=O)N1CCOCC1)c1cccc(S(=O)(=O)N2CCCc3ccccc32)c1`, for which the “hERG current change (%, negative = inhibition) at 1uM” value worked out at 0.941%.
As for `O=C(Nc1cccc(Cl)c1N1CCOCC1)c1ccc(Br)o1`, the figure is 4.08%; as for `O=C(NCCNC(=O)c1cc(Cl)ccc1Cl)c1cnccn1`, 7.08%.
The figure for `COc1ccc(S(=O)(=O)N(C)CC(=O)NCCC2=CCCCC2)cc1C` is -4.9%; for `CCCOc1ccc(C(=O)C(c2ccccc2)N2CCOCC2)cc1.Cl` (stereo not shown) it is 10.8%; for `CC(C)COc1ccc(-c2nn(-c3ccccc3)cc2CO)cc1` it is 4.83%.
The figure for `Clc1ccccc1OCCCCN1CCCC1` is -1.01%; for `O=C(C1=C(O)C(=O)N(CC2CCCO2)C1c1cccc(Cl)c1)c1ccco1` (stereo not shown) it is 10.1%; for `COc1ccc(C)c2sc(N(CCN(C)C)C(=O)c3cccc(N4C(=O)CCC4=O)c3)nc12.Cl` it is -19.7%.
With `CC(=O)Nc1ccc(NC(=O)Nc2cccc3ccccc23)cc1`, the “hERG current change (%, negative = inhibition) at 1uM” value is 9.7%.
As to `CNC(=S)Nc1ccc2nc(C)c(C)nc2c1`, the “hERG current change (%, negative = inhibition) at 1uM” value amounted to 17%.
The figure for `CCn1c(O)c(/C=C2\C=NN=C2c2ccc(C)cc2)sc1=S` is 7.69%; for `CCOC(=O)CN(C(=O)c1ccccc1)c1ccccc1C` it is 5.8%.
For `Cc1ccc(SCC(=O)NCc2ccncc2)cc1`, the “hERG current change (%, negative = inhibition) at 1uM” value is 8.37%.
The figure for `NC(=O)c1ccsc1NC(=O)COC(=O)C1=NNC(=O)CC1` is 14.1%.
The figure for `COc1cccc(-c2nc(Oc3cc(C)cc(C)c3)c3ccccc3n2)c1O` is 15.5%; for `COc1ccc(NC(=O)c2ccc(COCC(F)(F)C(F)F)cc2)cc1` it is 7.19%.
The figure for `COc1ccc(Nc2nc(N3CCCCC3)c3ccccc3n2)cc1` is 0.968%; for `Cc1ccc(C)c(N2CCN(C(=O)C3CCCN(S(=O)(=O)c4c(C)noc4C)C3)CC2)c1` (stereo not shown) it is 10.9%.
For the compound `CC(Oc1ccc(Cl)cc1Cl)C(=O)Nn1cnnc1` (stereo not shown), the “hERG current change (%, negative = inhibition) at 1uM” value amounted to 16.7%.
The figure for `COc1ccc(OCc2nnc(NC(=O)Nc3ccc(F)cc3)s2)cc1` is 8.15%.
As for `Cc1noc(N)c1C1(O)C(=O)Nc2c(Cl)cc(Cl)cc21` (stereo not shown), the figure is 1.24%.
The figure for `O=C(OCc1ccc(Cl)c(Cl)c1)c1ccc[nH]1` is -1%; for `CC1(C)SC2C(NC(=O)COc3ccccc3)C(=O)N2C1C(=O)[O-].[K+]` (stereo not shown) it is 0.024%.
With `COc1cccc(C2=NN(C(=O)c3ccco3)C(O)(C(F)(F)F)C2)c1` (stereo not shown), the “hERG current change (%, negative = inhibition) at 1uM” value is 11.9%.
As for `CCCCC(CC)C(=O)Nc1cc(C(=O)NCCC)ccc1N1CCC2(CC1)CC(c1ccccc1)=NO2` (stereo not shown), the figure is -11.4%.
As for `O=C1/C(=C/c2ccco2)SC(=S)N1CC1CCCO1` (stereo not shown), the figure is 14.5%; as for `Cn1ncc([N+](=O)[O-])c1C(=O)N1CCOCC1`, -0.9%.
As for `COc1c(C(=O)Nc2nnc(C3CC3)s2)csc1Cl`, the figure is 7.74%; as for `Cc1ccc(NC2=C(Cl)C(=O)OC2OC(=O)c2ccco2)cc1` (stereo not shown), 7.08%.
As for `COc1ccc(CCNC(=O)c2nnn(-c3ccc4c(c3)OCCO4)c2N)cc1OC`, the “hERG current change (%, negative = inhibition) at 1uM” value amounted to 14.4%.
The figure for `CCCCN(CC(=O)NC1CC1)S(=O)(=O)c1ccc(OCC)cc1` is -1.89%; for `O=[N+]([O-])c1ccc(Sc2ccccc2Cl)nc1` it is 15.4%; for `O=C(O)c1ccc2c(c1)C1C=CCC1C(c1ccncc1)N2` (stereo not shown) it is 11.4%.
`COc1cc(/C=N/Nc2ccc(C(=O)O)cc2)cc(OC)c1OC`: the “hERG current change (%, negative = inhibition) at 1uM” value worked out at 8.58%.
With `COc1ccccc1C1C(C(=O)c2cc3ccccc3o2)=C(O)C(=O)N1CCN1CCOCC1` (stereo not shown), the “hERG current change (%, negative = inhibition) at 1uM” value was 19.6%.
The figure for `O=C(CCC(=O)n1ncc2ccccc21)N1CCCCC1` is 11.6%; for `COc1ccc(S(=O)(=O)Nc2ccccc2Cl)cc1NC(C)=O` it is 14.8%; for `CCOC(=O)COc1ccc(S(=O)(=O)N2CCN(c3ccccc3F)CC2)cc1` it is 9.59%.
Regarding `Cc1ccccc1C(=O)Nc1cccc(C#N)c1`, the “hERG current change (%, negative = inhibition) at 1uM” value stood at 9.35%.
As for `CN(CC(=O)NCc1ccccn1)S(=O)(=O)c1cc(Cl)ccc1Cl`, the figure is 1.85%; as for `CCOc1ccc(NC(=O)c2ccccc2OCC(=O)c2ccc(C)cc2)cc1`, 10.9%; as for `CN1CCN(CC(=O)N/N=C\c2c[nH]c3ccccc23)CC1`, 17.8%.
As for `CN(CC(=O)Nc1ccc(OC(F)(F)F)cc1)C(=O)/C=C/c1cc2c(cc1[N+](=O)[O-])OCO2`, the figure is -1.01%.

These data come from paper PMC4336329 (PLoS ONE, 2015).
